Source: a compilation of properties of binary mixtures (doi:10.1007/s10953-007-9186-6)
The densities may have been worked out from excess volumes.

Experiment: xn = mol fraction of the nth substance listed
Conditions: 101 kPa

CO + CCCC[n+]1ccn(C)c1.F[B-](F)(F)F
x1 = 1
Conditions | mass density [kg/m3]
293.15 K | 791.3
323.15 K | 762.6

COC(=O)OC + CCCC[n+]1ccn(C)c1.F[B-](F)(F)F
x1 = 1
Conditions | mass density [kg/m3]
293.15 K | 1069.9
303.15 K | 1056.7
308.15 K | 1050.1
313.15 K | 1043.4
318.15 K | 1036.7
323.15 K | 1030

ClCCCCl + CCCC[n+]1ccn(C)c1.F[B-](F)(F)F
mass density [kg/m3]
Conditions | 293.15 K | 298.15 K | 303.15 K | 308.15 K | 313.15 K | 318.15 K | 323.15 K
x1 = 0.0972 | 1204.8 | – | 1197.6 | 1193.9 | 1190.3 | 1186.7 | –
x1 = 0.2137 | 1204.7 | – | – | – | 1189.6 | 1185.9 | 1182.2
x1 = 0.3214 | 1204.3 | – | 1196.4 | 1192.5 | – | 1184.8 | 1181
x1 = 0.4045 | 1203.8 | – | – | 1191.7 | 1187.7 | 1183.7 | 1179.7
x1 = 0.4534 | 1203.5 | – | 1195.3 | 1191.2 | 1187.1 | 1183 | 1178.9
x1 = 0.4746 | – | – | – | – | – | 1182.6 | 1178.5
x1 = 0.5374 | 1202.7 | – | 1194.1 | 1189.9 | 1185.6 | 1181.4 | 1177.1
x1 = 0.5958 | 1201.9 | – | – | 1188.7 | 1184.3 | 1179.9 | –
x1 = 0.6472 | 1201.1 | – | 1192 | 1187.4 | 1182.9 | 1178.4 | 1173.9
x1 = 0.7183 | 1199.5 | – | 1189.9 | 1185.2 | 1180.4 | 1175.7 | 1171
x1 = 0.7899 | 1197.4 | – | 1187.3 | 1182.3 | 1177.3 | 1172.3 | 1167.3
x1 = 0.8484 | 1195.1 | – | 1184.5 | – | – | 1168.7 | 1163.4
x1 = 0.8865 | – | – | 1182.3 | 1176.9 | 1171.4 | – | 1160.5
x1 = 0.9464 | 1189.9 | – | 1178.3 | – | – | 1160.9 | 1155
x1 = 1 | 1185.3 | 1179.1 | 1172.9 | – | 1160.4 | 1154.2 | 1147.9
